Here are results for 9 molecules from patent US20200369774A1 (JIANGSU HENGRUI MEDICINE, published 2020).

Where two headings read alike, the source gives them in different places.

In test [1] the target is T1, membrane-type IL-6R on cells (U266B1, TF-1, Hep3B) (UniProt P08887 20-468, limits assumed).
T1 sequence (looked up): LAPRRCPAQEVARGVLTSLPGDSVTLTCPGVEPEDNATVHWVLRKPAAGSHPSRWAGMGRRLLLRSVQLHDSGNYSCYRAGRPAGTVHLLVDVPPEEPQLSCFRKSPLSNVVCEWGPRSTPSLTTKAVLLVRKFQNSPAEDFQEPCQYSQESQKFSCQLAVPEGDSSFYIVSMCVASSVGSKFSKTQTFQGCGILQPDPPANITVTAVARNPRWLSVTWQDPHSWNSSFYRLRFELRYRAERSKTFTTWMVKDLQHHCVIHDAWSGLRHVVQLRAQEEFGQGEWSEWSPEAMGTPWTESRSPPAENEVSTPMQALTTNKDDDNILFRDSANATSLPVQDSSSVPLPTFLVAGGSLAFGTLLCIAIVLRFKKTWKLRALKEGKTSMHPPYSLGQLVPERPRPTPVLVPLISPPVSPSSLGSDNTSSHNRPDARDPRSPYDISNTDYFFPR
As to the kind of experiment: cell-based or functional assay.

The target in test [2] is T2, hIL-6R.His (human interleukin-6 receptor with His tag) (human, UniProt P08887 20-365).
T2 construct: Soluble recombinant antigen expressed in 293E cells; The entry includes the His tag
T2 sequence: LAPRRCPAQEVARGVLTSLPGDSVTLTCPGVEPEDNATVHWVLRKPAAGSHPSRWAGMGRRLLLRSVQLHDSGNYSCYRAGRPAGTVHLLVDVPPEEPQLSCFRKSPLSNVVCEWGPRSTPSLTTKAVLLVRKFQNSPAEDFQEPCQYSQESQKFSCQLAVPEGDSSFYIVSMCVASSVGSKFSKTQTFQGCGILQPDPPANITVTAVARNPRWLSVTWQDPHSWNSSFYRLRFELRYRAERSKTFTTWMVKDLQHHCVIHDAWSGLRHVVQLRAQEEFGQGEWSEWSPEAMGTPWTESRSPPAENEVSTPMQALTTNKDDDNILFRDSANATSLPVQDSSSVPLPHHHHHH
In words: SPR (Biacore T200), antibody captured by anti-human capture antibody, hIL-6R.his as analyte, 1:1 Langmuir. An excerpt:
Human anti-capture antibodies were covalently coupled onto Biosensor chip CM5 (Cat.# BR-1000-12, GE) in a Biacore instrument (Biacore T200, GE) with Human Anti-Capture Kit (Cat. #BR-1008-39, GE) according to manufacturer's protocol, thereby certain amounts of antibodies to be tested were captured. Antigens (hIL-6R.his and cIL-6R.FH) at a series of concentration gradients were then flowed through the surface of the chip . The reaction signals were detected in real time using Biacore instrument (Biacore T200, GE) to obtain binding and dissociation curves.
After each cycle of dissociation, the biochips were washed and regenerated with the regeneration solution provided in the Human Anti-Capture Kit. The amino coupling kit used in the experiment was purchased from GE (Cat. #BR-1000-50, GE) and the buffer was HBS-EP+10×buffer solution (Cat.#BR-1006-69, GE), diluted to 1×(pH 7.4) with D.I. water.
The experimental data were fitted with BlAevaluation version 4.1 and GE software (1:1) Langmuir model to obtain the affinity values.

Test [3] concerns the target T3, hIL-6R.BP15 (human interleukin-6 receptor with BP15 tag, biotinylated) (human, UniProt P08887 20-365, site-directed biotinylation on the BP15 tag).
T3 sequence: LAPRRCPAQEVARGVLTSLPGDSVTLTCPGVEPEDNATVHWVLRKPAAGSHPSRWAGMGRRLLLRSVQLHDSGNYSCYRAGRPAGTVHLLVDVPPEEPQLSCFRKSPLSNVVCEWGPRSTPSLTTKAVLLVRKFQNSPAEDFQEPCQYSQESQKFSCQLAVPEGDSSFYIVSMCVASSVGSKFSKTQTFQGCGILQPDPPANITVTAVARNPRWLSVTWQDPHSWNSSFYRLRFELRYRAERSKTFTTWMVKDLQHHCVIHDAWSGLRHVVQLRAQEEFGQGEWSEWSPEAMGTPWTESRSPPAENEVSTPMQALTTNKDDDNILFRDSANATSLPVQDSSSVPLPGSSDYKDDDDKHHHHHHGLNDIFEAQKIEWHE
As to the kind of experiment: blocking ELISA: coated gp130, IL-6.his and IL-6R.BP15 (0.06 ug/ml) with serially diluted antibody, HRP-streptavidin, OD450; blocked: binding of the IL-6/IL-6R complex to gp130; unit from the abscissa. Here is the method: (§1) The complex of IL-6 and IL-6R can bind to GP130. The assay will evaluate if the selected antibodies were able to block the formation of IL-6/IL-6R/gp130 complex by binding to IL-6R. The plates were coated with 1 μg/ml gp130 (diluted in PBS) at 4° C. overnight. The coating solution was discarded, and plates were blocked with 5% skim milk in PBS at 37° C. for 2-3h. After blocking, the plates were washed 3 times with washing buffer PBST (0.1% Tween-20 in PBS).
(§2) IL-6.his and IL-6R.BP15 were diluted with 1% BSA in PBS to a concentration of 0.06 μg/ml. Starting at 50 ug/ml, IL-6R antibodies were 1:3 serially diluted in dilution buffer and Both testing antibody samples and IL-6/IL-6R complex were added to the plate followed by lh incubation at 37° C. After that, the plates were washed for 3 times with washing buffer PBST (0.1% Tween-20 in PBS).
(§3) 1:2000 diluted Secondary antibody HRP streptavidin (Jackson, 016-030-084) was added to the plate followed by 1 h incubation at 37° C.After incubation and wash,. TMB was used for development. OD₄₅₀ values were read.
(In an ELISA, binding on a coated surface is turned into a signal by an enzyme label.)

For test [4], the target named is T3, hIL-6R.BP15 (human interleukin-6 …). As to the kind of experiment: blocking ELISA: coated IL-6.Fc, 1 ng/ul biotinylated IL-6R.BP15 with serially diluted antibody, HRP-streptavidin, OD450 falls with concentration; blocked ligand IL-6.Fc; sheet heads the row EC50; unit from the abscissa. Here is the method: The formation of IL-6R/IL-6 complex can be blocked by the binding of IL-6R antibody to IL-6R, indicating the downstream cell signaling could be blocked by preventing IL-6/IL-6Rcomplex formationon the cell membrane. All of the expressed the purified antibodies were tested for their abilities to block the binding between IL-6 and IL-6R by ELISA. The procedures was descripted as follows:
The plates were coated with100 μl of 2 ng/μl IL-6.Fc at 4° C. overnight, and blocked with 2% skim milk at 37° C. for 1 hour. The plates were then washed, incubated with 100 μl of serial diluted testing samples with and 1 ng/μl IL-6R.BP15. After 1 hourincubation at 37° C,. the plates were washed andHRP-streptavidin (Jackson, 016-030-084) diluted at 1:4000 was added to the plate followed by incubation. After wash and 100 μl TMB develoment at room temperature for 5 min. 100 μl of 1M H₂SO₄ was added to terminate the reaction. The OD₄₅₀ values were read.

Test [5] has the same target. As to the kind of experiment: blocking ELISA: coated gp130, IL-6.his and IL-6R.BP15 (0.06 ug/ml) with serially diluted antibody, HRP-streptavidin, OD450; blocked: binding of the IL-6/IL-6R complex to gp130; unit from the abscissa. Here is the method:
as §1, §2, §3
This is another data set of the same source.

Usually Kd stands for the equilibrium constant for the complex coming apart. A high value points to weaker binding. Broadly, the koff is the first-order rate constant of dissociation. Low readings indicate slow dissociation, high ones fast dissociation. For orientation: kon means a measure of how fast the partners come together. A lower kon goes with slower complex formation. As a reminder, the IC50 is the concentration needed to halve the response being measured. The EC50 is the midpoint of the concentration-response curve. Lower therefore signals a more potent agent.

B1: 1764 VHH-hFc fusion protein (Fc fusion)
chain: EVQLVESGGGLVQAGGSLRLSCEASGNIFKINVMGWYRQAPGKQREWVAAIISGGSTNYADSVKGRFTISRDNAKNTVYLQMNSLKPEDTAVYYCNAILTYNDYDLGSDYWGQGTQVTVSS[here human IgG1 Fc with changes without letters]
notes: expressed in 293E cells and purified on protein A. No linker is stated; also called IL-6R single domain antibody 1764; IL-6R antibody 1764
As to B1, the “EC50, blocking effect on IL-6-stimulated TF-1 proliferation” value (shortened to “EC50, blocking effect”) in test [1] was 0.41 nM. In test [2], this molecule displayed a Kd of 0.129 nM, a koff of 0.000164 s⁻¹ and a kon of 1.28e+06 M⁻¹ s⁻¹. The same molecule registered an IC50 in test [3] of 0.0343 µg/mL. Also, the EC50 in test [4] was found to be 0.128 µg/mL.

B2: 1764-mu9 VHH-hFc fusion protein (Fc fusion)
chain: EVQLVESGGGLVQPGGSLRLSCAASGNIFKINVMGWYRQAPGKGREWVAAIISGGSTNYADSVKGRFTISRDNAKNTLYLQMNSLRPEDTAVYYCAFILTYNDYDLGSDYWGQGTLVTVSS[here human IgG1 Fc with changes without letters]
notes: Joining the two entries may therefore repeat these five residues; also called variant 9 (A14P, E23A, Q44G, V78L, K86R, N96A, A97F, Q116L)
In test [2], B2 gave a Kd of 0.142 nM, a koff of 0.000121 s⁻¹ and a kon of 853000 M⁻¹ s⁻¹.

B3: 1764-mu7 VHH-hFc fusion protein (Fc fusion)
chain: EVQLVESGGGLVQPGGSLRLSCAASGNIFKINVMGWYRQAPGKQREWVAAIISGGSTNYADSVKGRFTISRDNAKNTLYLQMNSLRPEDTAVYYCAFILTYNDYDLGSDYWGQGTLVTVSS[here human IgG1 Fc with changes without letters]
notes: also called variant 7 (A14P, E23A, V78L, K86R, N96A, A97F, Q116L)
In test [2], B3 yielded a Kd of 0.131 nM, a koff of 0.000117 s⁻¹ and a kon of 897000 M⁻¹ s⁻¹.

B4: 1764-mu1 VHH-hFc fusion protein (Fc fusion)
chain: EVQLVESGGGLVQPGGSLRLSCEASGNIFKINVMGWYRQAPGKQREWVAAIISGGSTNYADSVKGRFTISRDNAKNTVYLQMNSLRPEDTAVYYCNAILTYNDYDLGSDYWGQGTQVTVSS[here human IgG1 Fc with changes without letters]
notes: also called variant 1 (A14P, K86R)
Consider B4, for which, in test [1], the “EC50, blocking effect” value was found to be 0.447 nM. In test [2], this molecule gave a Kd of 0.105 nM, a koff of 0.000128 s⁻¹ and a kon of 1.23e+06 M⁻¹ s⁻¹. The IC50 in test [3] stood at 0.0405 µg/mL.

B5: 1764-mu4 VHH-hFc fusion protein (Fc fusion)
chain: EVQLVESGGGLVQAGGSLRLSCAASGNIFKINVMGWYRQAPGKGREWVAAIISGGSTNYADSVKGRFTISRDNAKNTVYLQMNSLKPEDTAVYYCNAILTYNDYDLGSDYWGQGTLVTVSS[here human IgG1 Fc with changes without letters]
notes: also called variant 4 (E23A, Q44G, Q116L)
Take B5: the “EC50, blocking effect” value in test [1] was 0.37 nM. In addition, in test [2], the Kd was determined as 0.125 nM, the koff came to 0.00015 s⁻¹ and the kon worked out at 1.2e+06 M⁻¹ s⁻¹. The same molecule came in with an IC50 in test [5] of 0.0433 µg/mL.

B6: 1764-mu5 VHH-hFc fusion protein (Fc fusion)
chain: EVQLVESGGGLVQAGGSLRLSCAASGNIFKINVMGWYRQAPGKQREWVAAIISGGSTNYADSVKGRFTISRDNAKNTVYLQMNSLKPEDTAVYYCAFILTYNDYDLGSDYWGQGTLVTVSS[here human IgG1 Fc with changes without letters]
notes: also called variant 5 (E23A, N96A, A97F, Q116L)
On to B6, for which, in test [2], the Kd was determined as 0.101 nM, the koff was determined as 0.000111 s⁻¹ and the kon amounted to 1.1e+06 M⁻¹ s⁻¹.

B7: 1764-mu8 VHH-hFc fusion protein (Fc fusion)
chain: EVQLVESGGGLVQAGGSLRLSCAASGNIFKINVMGWYRQAPGKGREWVAAIISGGSTNYADSVKGRFTISRDNAKNTLYLQMNSLKPEDTAVYYCAFILTYNDYDLGSDYWGQGTLVTVSS[here human IgG1 Fc with changes without letters]
notes: also called variant 8 (E23A, Q44G, V78L, N96A, A97F, Q116L)
Consider B7, for which, in test [2], the Kd came to 0.143 nM, the koff turned out to be 0.000144 s⁻¹ and the kon was found to be 1.01e+06 M⁻¹ s⁻¹.

B8: 1764-mu6 VHH-hFc fusion protein (Fc fusion)
chain: EVQLVESGGGLVQPGGSLRLSCAASGNIFKINVMGWYRQAPGKGREWVAAIISGGSTNYADSVKGRFTISRDNAKNTLYLQMNSLRPEDTAVYYCNAILTYNDYDLGSDYWGQGTLVTVSS[here human IgG1 Fc with changes without letters]
notes: also called variant 6 (A14P, E23A, Q44G, V78L, K86R, Q116L)
On to B8, for which the “EC50, blocking effect” value in test [1] was determined as 0.603 nM. Moreover, in test [2], the Kd was determined as 0.2 nM, the koff turned out to be 0.000245 s⁻¹ and the kon worked out at 1.23e+06 M⁻¹ s⁻¹. This molecule had an IC50 in test [5] of 0.066 µg/mL.

B9: 1764-mu2 VHH-hFc fusion protein (Fc fusion)
chain: EVQLVESGGGLVQAGGSLRLSCAASGNIFKINVMGWYRQAPGKGREWVAAIISGGSTNYADSVKGRFTISRDNAKNTVYLQMNSLKPEDTAVYYCNAILTYNDYDLGSDYWGQGTQVTVSS[here human IgG1 Fc with changes without letters]
notes: also called variant 2 (E23A, Q44G)
Take B9: the “EC50, blocking effect” value in test [1] is 0.344 nM. In test [2], this molecule returned a Kd of 0.126 nM, a koff of 0.000154 s⁻¹ and a kon of 1.23e+06 M⁻¹ s⁻¹. The IC50 in test [5] was 0.0542 µg/mL.
